Source: paper PMC4336329 (PLoS ONE, 2015)
In all, about 310,000 compounds went through this assay and about 14,000 (4.5%) showed an effect of 50% or more. The effect is printed as a negative number. The list shows a part of the results.

The compounds below were run against human ether-à-go-go-related gene (hERG) potassium channel (human, UniProt Q12809) (assay: primary screen, population patch clamp on CHO cells stably expressing hERG).
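Also: peak tail current of the secondary pulse compared with the same well before compound.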

Sequence of human ether-à-go-go-related gene (hERG) potassium channel (Q12809 whole entry, looked up): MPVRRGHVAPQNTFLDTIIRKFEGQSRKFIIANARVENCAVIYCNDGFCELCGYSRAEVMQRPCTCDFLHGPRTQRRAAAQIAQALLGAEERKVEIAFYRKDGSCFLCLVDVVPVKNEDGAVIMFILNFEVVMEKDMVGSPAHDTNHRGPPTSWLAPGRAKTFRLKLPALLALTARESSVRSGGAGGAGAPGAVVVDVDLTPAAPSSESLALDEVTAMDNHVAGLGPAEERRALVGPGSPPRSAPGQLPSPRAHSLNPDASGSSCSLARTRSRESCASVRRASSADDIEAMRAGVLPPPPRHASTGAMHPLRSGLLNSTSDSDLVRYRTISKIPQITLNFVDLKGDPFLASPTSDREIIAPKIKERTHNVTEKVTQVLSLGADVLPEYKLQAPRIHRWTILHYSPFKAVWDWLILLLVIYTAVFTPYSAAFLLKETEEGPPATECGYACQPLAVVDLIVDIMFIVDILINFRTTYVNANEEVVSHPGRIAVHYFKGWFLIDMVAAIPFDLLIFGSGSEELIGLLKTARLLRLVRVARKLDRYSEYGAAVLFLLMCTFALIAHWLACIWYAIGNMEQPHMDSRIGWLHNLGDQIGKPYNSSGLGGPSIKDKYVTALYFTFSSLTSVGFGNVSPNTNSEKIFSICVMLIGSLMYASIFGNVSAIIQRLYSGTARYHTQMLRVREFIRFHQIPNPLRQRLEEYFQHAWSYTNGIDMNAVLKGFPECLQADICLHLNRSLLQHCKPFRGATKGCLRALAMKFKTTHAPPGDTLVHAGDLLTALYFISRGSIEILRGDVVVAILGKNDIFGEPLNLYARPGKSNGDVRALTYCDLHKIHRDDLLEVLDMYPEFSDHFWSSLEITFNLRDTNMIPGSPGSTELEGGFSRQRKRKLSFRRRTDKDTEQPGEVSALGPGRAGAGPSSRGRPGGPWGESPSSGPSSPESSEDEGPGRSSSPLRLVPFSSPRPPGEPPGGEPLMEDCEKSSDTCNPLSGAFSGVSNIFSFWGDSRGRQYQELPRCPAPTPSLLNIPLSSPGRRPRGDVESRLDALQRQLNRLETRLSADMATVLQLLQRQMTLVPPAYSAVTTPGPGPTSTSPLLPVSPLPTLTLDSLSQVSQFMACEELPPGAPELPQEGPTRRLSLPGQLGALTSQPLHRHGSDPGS

Row | SMILES | hERG current change (%, negative = inhibition) at 10uM [%]
1 | Cc1c2cnn(CC(=O)O)c(=O)c2c(C)n1Cc1ccccc1 | 14.8
2 | Fc1ccc(C2CC(c3ccco3)n3ncnc3N2)cc1 (centres unmarked) | -14.4
3 | Cc1ccc(Cn2c(Sc3ncccn3)nc3c2c(=O)[nH]c(=O)n3C)cc1 | -5.24
4 | CCc1ccccc1NS(=O)(=O)c1ccc2[nH]cc(C(=O)NCc3ccco3)c(=O)c2c1 | 18.4
5 | O=C(CN(CCc1ccccc1)C(=O)c1csnn1)NCc1ccc(F)cc1 | -14.1
6 | COc1ccc(CN2C(=O)c3cccnc3C2Nc2cc(Cl)ccc2OC)cc1 (centres unmarked) | -10.6
7 | COc1ccccc1NC(=O)c1nc(S(=O)(=O)Cc2ccccc2)ncc1Cl | -5.2
8 | COc1cc(C(=O)N(C)CC2CCN(CCc3cccc(C(F)(F)F)c3)CC2)ccc1C | -78.8
9 | CC(=O)c1ccc(-n2nncc2-c2ccc([N+](=O)[O-])cc2)cc1 | -53.3
10 | Cc1ccc(O)c(CCc2ccc(O)cc2)n1.Cl | -0.196
11 | COc1ccc(-c2cc(C(F)(F)F)nc(SCC(=O)NCCCN3CCOCC3)n2)cc1 | -14
12 | CCOc1ccc2[nH]c(C)c(CN3CCN(CC)CC3)c(=O)c2c1 | -0.978
13 | Cc1noc(C)c1COC(=O)CCCOc1ccc(Cl)cc1Cl | 5.21
14 | NC(=S)N/N=C/c1ccc(C(F)(F)F)cc1 | 11
15 | O=C(N/N=C/c1cc2c(cc1Cl)OCO2)c1ccncc1 | 24.4
16 | CCN(CC)CC#CCC1(O)c2ccccc2-c2ccccc21.Cl | -9.76
17 | Cc1ccc(NC(=O)CSCC(=O)N=c2sccn2C)cc1 | 7.83
18 | NC(=O)c1nsc(C(=O)N(c2cccc(F)c2)C(C(=O)NC2CCCC2)c2ccc(O)cc2)c1N (centres unmarked) | 23
19 | CCC(=O)Nc1cccc(NC(=O)CSc2nnnn2C2CCCC2)c1 | -10.6

Row | SMILES | hERG current change (%, negative = inhibition) at 10uM [%]
20 | O=C(NC1CCCc2ccccc21)c1c(F)cccc1Cl (centres unmarked) | 8.95
21 | Nc1ccc(NC(=O)c2ccccc2)c2c1C(=O)c1ccccc1C2=O | 2.65
22 | Cn1c(=O)c2c(nc(SCC(=O)c3ccc(F)cc3)n2C)n(C)c1=O | -3.64
23 | Cc1cc(C(=O)CSc2nc3ccccc3[nH]2)c(C)n1C | -17.7
24 | Cc1ccccc1CNC(=O)c1ccccc1N(C)S(=O)(=O)c1ccccc1 | 11.9
25 | Cc1ccc(NC(=O)Cn2nc(C(F)(F)F)c3c2CCC3)cc1 | 17.9
26 | O=C(O)CCc1ccc(S(=O)(=O)NCCc2ccccc2)cc1 | -2.31
27 | C[C@@H](C(=O)NCC1CC1)[C@H]1C[C@]1(C)[C@H](NC(=O)OCc1ccccc1)c1ccccc1 | -7.08
28 | O=C(C1CCN(S(=O)(=O)N2CCOCC2)CC1)N1CCN(c2ccc(F)cc2)CC1 | -30
29 | O=C(NC(Cc1c[nH]c2ccccc12)C(=O)N/N=C/c1cccc2ccccc12)c1cccs1 (centres unmarked) | 5.65
30 | COC(=O)CC1C(=O)NCCN1C(=O)Nc1ccccc1 (centres unmarked) | 3.75
31 | CCOC(=O)N1CCN(C(=O)C2CCCN(S(C)(=O)=O)C2)CC1 (centres unmarked) | 14.7
32 | Cc1cccc(/C=N/N2CCN(c3ccccc3)CC2)c1 | -4.38
33 | CC(C)C(=O)NCCc1nc2ccccc2n1CCc1ccccc1 | 8.25
34 | Cc1ccc(CN2CCNC(=O)C2CC(=O)NCC(F)(F)F)o1 (centres unmarked) | 14.1
35 | COc1cccc(NC(=O)C(OC(=O)c2ccc([N+](=O)[O-])o2)c2ccccc2)c1 (centres unmarked) | -12.5
36 | COCCNc1nnc(SCC(=O)NC(=O)c2ccccc2)s1 | 1.56
37 | Cc1ccc(S(=O)(=O)N2CCN(c3ccccc3)CC2)cc1C(N)=O | -45.9
38 | O=C(Cc1ccccc1)N1CCN(C/C=C/c2ccccc2)CC1 | -19.5

Row | SMILES | hERG current change (%, negative = inhibition) at 10uM [%]
39 | CCOC(=O)C1CCN(C(=O)/C=C/c2ccc(OC)cc2)CC1 | -17.9
40 | O=C(C1=C[C@@H]2[C@H]3C(=O)N(c4cccc(Cl)c4)C(=O)[C@H]3[C@@H](C(=O)c3ccc(Cl)cc3)N2C=C1)c1ccccc1 | 9.73
41 | Cc1ccc(SCC(=O)NC(C)c2ccccc2)cc1 (centres unmarked) | 1.94
42 | N#C/C(=N\Nc1c(Cl)cccc1Cl)C(=O)NN | 8.57
43 | CCc1ccccc1NC(=O)CSc1n[nH]c(C)c1[N+](=O)[O-] | -8.12
44 | O=C(CCc1nc2ccccc2s1)Nc1ccccc1 | 16.3
45 | NNC(=O)CNC(=O)CNS(=O)(=O)c1ccccc1 | 16.2
46 | Cc1ccc2c(c1)NC(=O)C(CC(=O)NCCN(CC(C)C)CC(C)C)O2 (centres unmarked) | -24.7
47 | CCN(CC)CCCn1c(=S)[nH]c2cc(OC)c(OC)cc2c1=O | -2.6
48 | COc1cc(NC(=O)COC(=O)c2cnccn2)c(C)cc1[N+](=O)[O-] | -15.1
49 | C[C@H](NC(=O)N1CCn2c1nc1ccccc12)C(=O)NCCc1ccccc1 | -1.73
50 | O=S(=O)(Nc1ccc2ccccc2n1)c1ccc2c(c1)CCO2 | 12.4
51 | COc1ccc2nc3c(cc2c1)c(NC(=O)CC(C)C)nn3CC(C)C | 15.4
52 | COc1cccc(C(=O)OCC(=O)c2c[nH]c3ccccc23)c1O | 15.3
53 | Cc1cc(C)c(S(=O)(=O)N2CCN(C(=O)CCn3nc(C)c(C)c3C)CC2)c(C)c1 | -35.8
54 | COc1ccc(-c2cc3ccc(OCC(N)=O)cc3oc2=O)cc1OC | 16.9
55 | Cc1cc(=O)n2[nH]c(-c3ccc(F)cc3)nc2n1 | 14.5
56 | CNS(=O)(=O)c1cccc(C(=O)OCC(=O)Nc2ccccc2F)c1 | 31.6
